± gives the standard deviation of the averaged measurements. The full ranking holds about 33,000 sequences; the median of “E-score (dimensionless, -0.5 to 0.5)” is about -0.046, and the highest 2% start at about 0.36. The list shows a part of the results.
Test system: T1, SpTbr T-box DNA-binding domain (GST fusion)
T1 sequence: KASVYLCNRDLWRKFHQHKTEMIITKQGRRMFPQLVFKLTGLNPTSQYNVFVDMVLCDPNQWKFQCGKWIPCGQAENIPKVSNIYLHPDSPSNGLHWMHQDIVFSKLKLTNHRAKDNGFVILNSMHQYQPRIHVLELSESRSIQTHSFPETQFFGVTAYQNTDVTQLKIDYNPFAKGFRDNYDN
Experiment: PBM E-score of 8-mer (E-score (dimensionless, -0.5 to 0.5)); Tbr is Tbrain of the sea star Patiria miniata (Pm) or the sea urchin Strongylocentrotus purpuratus (Sp); higher = stronger binding preference; most listed sequences are background and not binding sites
Conditions: the construct has about 5 more residues each side
Method: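 Universal protein-binding microarray (Agilent AMADID 016060, 60-bp probes with a 35-bp variable region) incubated with 200 nM GST-fused Strongylocentrotus purpuratus Tbr T-box DNA-binding domain (residues 362-554) in PBS pH 7.5. Scored for every ungapped 8-mer (given with its reverse complement) as E-score (range -0.5 to 0.5; >0.45 counts as bound) and Z-score of median probe intensity. Two replicate arrays (datasets 1 and 2).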
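Further: protein at 200 nM in PBS on universal double-stranded arrays.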

| Sequence | PBM E-score of 8-mer |
| --- | --- |
| TCCGACGA | 0.119 ± 0.02 |
| CAATTCCC | -0.166 ± 0.032 |
| CATTGCAC | 0.11 ± 0.024 |
| TGCGTCAA | 0.145 ± 0.012 |
| AGCTTTCC | 0.0219 ± 0.081 |
| AGAGCCGA | -0.0992 ± 0.045 |
| ATCCGAAC | -0.233 ± 0.033 |
| AGGTGAGA | 0.4826 ± 0.0046 |
| CTAGTACA | 0.171 ± 0.0048 |
| GGCTATTA | -0.117 ± 0.12 |
| CGTACCAA | -0.0588 ± 0.05 |
| CTCTGTGA | 0.094 ± 0.062 |
| ACCACGAA | -0.0504 ± 0.045 |
| ACGTGATG | 0.0808 ± 0.05 |
| AAACAGCG | 0.0862 ± 0.049 |
| GTGGACGA | -0.0409 ± 0.08 |
| ATGGCAGC | 0.0838 ± 0.045 |
| AGGAAAAC | -0.188 ± 0.049 |
| CTCACTGC | 0.0922 ± 0.076 |
| GACTATTA | -0.223 ± 0.022 |
| TTTAAAAA | -0.275 ± 0.034 |
| CATGTAGG | 0.0316 ± 0.017 |
| ATGGATAA | -0.264 ± 0.017 |
| AGGGAATC | -0.228 ± 0.039 |
| ATAACGAT | 0.0577 ± 0.043 |

| Sequence | PBM E-score of 8-mer |
| --- | --- |
| AGGGAAGA | -0.221 ± 0.0054 |
| AGCCGTCG | 0.0127 ± 0.019 |
| AAATACTG | -0.296 ± 0.014 |
| ACTGCGCG | -0.0444 ± 0.0048 |
| CACGGAGG | 0.0809 ± 0.048 |
| CATACGGG | -0.188 ± 0.04 |
| CAAGTATA | -0.0826 ± 0.084 |
| AGTAATGC | -0.147 ± 0.065 |
| AACCGAGA | 0.113 ± 0.045 |
| CACGCGGG | 0.245 ± 0.0052 |
| CGAGGCTC | -0.174 ± 0.0092 |
| CTAGCGGA | -0.0583 ± 0.019 |
| GTAAACCA | 0.112 ± 0.029 |
| ATTCGTAG | -0.0997 ± 0.051 |
| CTCCCCAC | 0.097 ± 0.09 |
| ATTTTCAG | -0.243 ± 0.02 |
| TCGACAAA | 0.159 ± 0.054 |
| GCTAGCCC | -0.0334 ± 0.073 |
| ATCCTCTA | -0.247 ± 0.081 |
| GGTAAGAA | -0.02 ± 0.051 |
| AACGTCGG | -0.15 ± 0.052 |
| ATAGCTTA | -0.133 ± 0.021 |
| CATGATGC | -0.146 ± 0.043 |
| ATGGCTAG | -0.134 ± 0.017 |
| AGGAGACC | -0.232 ± 0.028 |

| Sequence | PBM E-score of 8-mer |
| --- | --- |
| CGTGTGCC | 0.0456 ± 0.035 |
| GCAGCCCC | -0.15 ± 0.027 |
| ATGGCGCG | 0.184 ± 0.074 |
| CCGTGCGC | -0.0316 ± 0.046 |
| ACCTTACG | 0.154 ± 0.035 |
| GGATATTA | -0.28 ± 0.018 |
| AGATGCAT | -0.0592 ± 0.02 |
| CAACTCAG | 0.0384 ± 0.031 |
| CACCCAAA | -0.00315 ± 0.023 |
| ACCAATAA | -0.11 ± 0.041 |
| CTGCGTAA | -0.152 ± 0.034 |
| CTTTTGCA | 0.0339 ± 0.067 |
| CCATAGGA | -0.1 ± 0.037 |
| TCCAGGAA | -0.177 ± 0.0033 |
| AAATTCAG | -0.0152 ± 0.023 |
| ATCCAGAG | -0.25 ± 0.021 |
| GTGCAAAA | 0.237 ± 0.068 |
| AGTCAGCG | -0.14 ± 0.041 |
| GAACCACC | -0.0115 ± 0.036 |
| TCCCCTAA | -0.144 ± 0.02 |
| TCGCAAGA | 0.167 ± 0.016 |
| CTTGACGC | 0.324 ± 0.011 |
| GTCGGAGA | -0.119 ± 0.034 |
| ACTGCTGC | -0.0667 ± 0.011 |
| ACTTGCGG | 0.0502 ± 0.018 |

| Sequence | PBM E-score of 8-mer |
| --- | --- |
| ACCAGCTG | 0.0355 ± 0.059 |
| TACGTACA | -0.0846 ± 0.028 |
| AAGTCAGG | -0.243 ± 0.14 |
| CATATCAA | -0.0351 ± 0.016 |
| GGCCCCAA | 0.164 ± 0.04 |
| CGCTAGGC | 0.0913 ± 0.013 |
| AAGATAGA | -0.291 ± 0.02 |
| CAGGTATA | -0.104 ± 0.037 |
| AGCCGAAT | -0.258 ± 0.018 |
| AACGCTGG | 0.0849 ± 0.037 |
| ACGTATTC | -0.04 ± 0.031 |
| CCTTATCG | 0.0879 ± 0.03 |
| GCTTCGCC | -0.0539 ± 0.012 |
| AGGTACGC | -0.197 ± 0.01 |
| CAGATTCG | -0.0135 ± 0.012 |
| CCAGACCC | -0.0884 ± 0.053 |
| ACCAGATG | -0.273 ± 0.016 |
| CCGAGGGA | -0.253 ± 0.04 |
| CGGGCCCC | -0.2465 ± 0.0019 |
| GGTGACAC | 0.4606 ± 0.0026 |
| AGGCGCCA | 0.3542 ± 0.0011 |
| GGGACTCA | -0.308 ± 0.04 |
| TCGCACGA | 0.316 ± 0.0081 |
| CCTGCTCC | -0.151 ± 0.018 |
| AATCATGA | -0.0643 ± 0.051 |

| Sequence | PBM E-score of 8-mer |
| --- | --- |
| TCAAGACA | 0.0813 ± 0.021 |
| AGTTTGGC | 0.0081 ± 0.082 |
| AATAAAAG | -0.057 ± 0.055 |
| CCAAGTCA | 0.0222 ± 0.019 |
| AAAAACTT | -0.162 ± 0.046 |
| CAAACAGG | -0.111 ± 0.019 |
| CAGCGGGC | -0.172 ± 0.008 |
| CAGCTCCA | -0.0379 ± 0.11 |
| AATACAAG | -0.0808 ± 0.013 |
| CCGCCCCC | -0.2141 ± 0.0011 |
| CTCGAAAC | -0.0914 ± 0.049 |
| GCTTCATA | -0.0722 ± 0.021 |
| AAGCAAAA | -0.0778 ± 0.031 |
| CACACGGG | 0.147 ± 0.039 |
| CTGTGGGA | 0.105 ± 0.057 |
| GCGATAGC | 0.148 ± 0.022 |
| TAGAGAAA | -0.244 ± 0.085 |
| CTAATTTC | -0.118 ± 0.12 |
| CAAATACA | -0.2 ± 0.042 |
| ATGCTTGG | -0.225 ± 0.044 |
| CTACGAGA | -0.0694 ± 0.018 |
| ATCGATCC | 0.0474 ± 0.016 |
| CATGCGCG | 0.221 ± 0.023 |
| AAGAAGTC | -0.0241 ± 0.069 |
| AGAAGAGA | -0.161 ± 0.024 |

| Sequence | PBM E-score of 8-mer |
| --- | --- |
| ATTTTTCA | -0.113 ± 0.056 |
| CCTCCCCG | -0.0418 ± 0.021 |
| TAACCGCA | 0.0176 ± 0.021 |
| AGGAATTA | -0.188 ± 0.01 |
| CGATCAAA | -0.0526 ± 0.07 |
| GGGTTAAA | -0.213 ± 0.063 |
| AATGGAGC | -0.269 ± 0.035 |
| GGTCCGAC | -0.121 ± 0.093 |
| CAGTTTCG | 0.0306 ± 0.013 |
| CTTCTGTA | -0.0583 ± 0.011 |
| GCGACCGA | 0.176 ± 0.006 |
| AACTTCCC | -0.0915 ± 0.064 |
| CGAGAAAG | 0.117 ± 0.017 |
| AAGTTTGC | 0.0331 ± 0.095 |
| CGAGCAGA | -0.0372 ± 0.047 |
| GCCGCGGC | -0.115 ± 0.16 |
| AACGCACA | 0.0595 ± 0.0009 |
| ATCATGGA | -0.315 ± 0.01 |
| ATTTCCTC | -0.11 ± 0.013 |
| CATAGCGG | -0.0417 ± 0.011 |
| AACTCGTA | 0.0283 ± 0.013 |
| CGCTCTGC | 0.0215 ± 0.0072 |
| GAACTTCC | -0.172 ± 0.029 |
| AGATATCA | 0.145 ± 0.0086 |
| TGGTATAA | -0.152 ± 0.0058 |

| Sequence | PBM E-score of 8-mer |
| --- | --- |
| CATAACGC | 0.21 ± 0.014 |
| CATAGCGC | 0.0682 ± 0.018 |
| AAACGAAA | -0.116 ± 0.09 |
| AAGCTCAG | -0.0825 ± 0.03 |
| TAAGCTCA | -0.166 ± 0.12 |
| CGTTTGAG | -0.201 ± 0.066 |
| CCACACGA | 0.0789 ± 0.12 |
| AACGCGTT | 0.146 ± 0.013 |
| GTTCCCCA | -0.0542 ± 0.052 |
| TAGGAACA | 0.0112 ± 0.037 |
| GATGTGAA | 0.2 ± 0.0079 |
| GATATACC | -0.0949 ± 0.018 |
| AAACTTCC | -0.271 ± 0.033 |
| CCATACCC | -0.247 ± 0.031 |
| CGGAGACA | -0.0395 ± 0.021 |
| CTGTGGGC | -0.0476 ± 0.071 |
| GGCACCGA | -0.122 ± 0.1 |
| CTGGGAGC | -0.0158 ± 0.037 |
| AGGAGGGC | -0.173 ± 0.085 |
| CCATTCCA | -0.17 ± 0.006 |
| AACGCGTC | 0.188 ± 0.014 |
| AAAACATC | -0.0945 ± 0.036 |

Source: the supplement of paper PMC4166925
